Consider 110 compounds from PubChem BioAssay AID1240 (Sanford-Burnham Center for Chemical Genomics, 2008).

The whole screen tested about 50,000 compounds, of which about 800 (1.6%) showed an effect of 50% or more. This is one part of the list.

This experiment addresses Bcl-2-like protein 10 (Homo sapiens) (UniProt Q9HD36). As to the kind of experiment: TR3 peptide-Bcl-B binding displacers, biochemical primary FP assay, phenotype converters (AID 1240).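 Also: 0% = Bcl-B with tracer peptide and DMSO and 100% = tracer peptide lacking Bcl-B.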 The settings on record: GST-Bcl-B / FITC-TR3 peptide fluorescence polarization; stronger effect = higher value; compound at 3.75 mg/L.
Chain of UniProt Q9HD36 (Q9HD36 whole entry, looked up): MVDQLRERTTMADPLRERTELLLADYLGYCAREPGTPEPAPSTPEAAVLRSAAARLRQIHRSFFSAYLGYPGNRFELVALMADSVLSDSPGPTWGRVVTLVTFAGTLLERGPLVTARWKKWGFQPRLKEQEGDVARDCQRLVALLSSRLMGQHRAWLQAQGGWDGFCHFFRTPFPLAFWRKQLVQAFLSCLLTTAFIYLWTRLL
Regarding `CC1(C)C(C=C(Cl)Cl)C1C(=O)NC1CCCCC1` (stereo not given), the displacement was found to be 4%.
With `COc1ccc(N(CC(=O)Nc2ccccc2)S(C)(=O)=O)cc1Cl` the figure was 3.3%; with `Cc1ccc(NCC(=O)N/N=C\c2cccc(OC(=O)c3ccco3)c2)cc1`, 7.1%; with `O=C(NCCc1ccccc1)c1nn2c(c1Br)NC(c1cccs1)CC2C(F)(F)F` (stereo not given), 2.4%.
With `O=C(Cc1ccc(Br)cc1)Nc1cc([N+](=O)[O-])ccc1Cl` the figure was 4.4%; with `COc1ccc(-n2c(O)c(C=Nc3ccc(Cl)cc3)c(=O)[nH]c2=O)cc1`, 14.3%.
With `COc1ccc(NC2=NS(=O)(=O)c3cc([N+](=O)[O-])ccc32)cc1` the figure was -7.5%; with `O=C(NC(=S)Nc1ccc([N+](=O)[O-])cc1Cl)c1ccco1`, 11.2%.
As to `C[n+]1ccc2c(c1)ncn2Cc1ccccc1`, the displacement was -22.4%.
Then `Cc1cc(Cl)ccc1OCC(=O)Nc1ccc(F)c([N+](=O)[O-])c1`, with 11.4%; and `NC(N)=N/N=C/c1ccccc1OCc1ccc(Cl)cc1`, with 15%.
With `CCOC(=O)c1ccc(NC(=O)CN(c2cc(C)cc(C)c2)S(=O)(=O)c2ccccc2)cc1`, the displacement is 4.7%.
Then `CCOC(=O)C(=CNc1cc(Cl)c(-c2ccco2)c(Cl)c1)C(=O)OCC`, with 15.7%; and `O=C1C2C(C(=O)N1/N=C/c1ccco1)C1C=CC2C12CC2` (stereo not given), with 4.5%.
With `CCOC(=O)CCc1c(C)nc2cc(-c3ccc(Br)cc3)[nH]n2c1=O` the figure was 9.9%; with `CC1=C(C)CC2C(=O)N(c3ccc(Cl)cc3Cl)C(=O)C2C1` (stereo not given), -8.5%; with `O=C1NN(c2ccc(Cl)c(Cl)c2)C(=O)/C1=C/c1cccn1-c1ccc([N+](=O)[O-])cc1`, 1.7%.
Then `O=[N+]([O-])c1ccc(NC(=S)Nc2ccc(F)cc2)c(O)c1`, with 2.1%; and `COc1ccc(C(C)=O)c(OC(C)=O)c1`, with -9.9%.
Consider `COc1ccc(OC)c(NC(=O)c2ccccc2C)c1`, for which the displacement is 2.8%.
For the compound `CCCCOC(=O)C1=C(C)NC2=C(C(=O)CC(c3ccccc3)C2)C1c1ccco1` (stereo not given), the displacement is -19.4%.
Then `Cc1[nH]c2ccc(Br)cc2c(=O)c1CC=C(Cl)Cl`, with -6.6%; and `CCOC(=O)CSc1nc(N)c(C#N)c(-c2ccc(O)cc2)c1C#N`, with 4%.
With `Cc1ccc(N2C(=O)CC(NCc3ccc(Cl)cc3Cl)C2=O)cc1` (stereo not given) the figure was 8.1%; with `CC(C)c1ccccc1NS(=O)(=O)c1ccc([N+](=O)[O-])cc1`, 3.1%; with `COc1ccc(NS(=O)(=O)c2cc(C)ccc2C)cc1`, 2%.
With `O=c1nc(-c2ccccc2)c2cc(OC(F)(F)F)ccc2[nH]1` the figure was 10.2%; with `CCCOc1ccc(-c2cn3ccccc3n2)cc1`, -16.5%; with `CC(=O)Nc1ccc(/C=C(/C#N)C(=O)N/N=C/c2ccc(NC(C)=O)cc2)cc1`, 110%.
Regarding `O=C(Nc1ccncc1)c1cccc(F)c1`, the displacement is -3%.
Then `N/C(Cc1ccc([N+](=O)[O-])cc1)=N\OC(=O)C(c1ccccc1)c1ccccc1`, with -34.1%; and `CC12CC3CC(C)(C1)CC(C(=O)Nc1cc(Cl)ccc1Cl)(C3)C2`, with 1.3%; and `CC(=O)Nc1ccccc1NS(=O)(=O)c1ccccc1[N+](=O)[O-]`, with -7.2%.
With `COc1cc(OC)cc(C(=O)Nc2ccc(-c3nc4cc(C)cc(C)c4o3)cc2)c1` the figure was 55.3%.
For the compound `CC(=O)c1sc(NC(=O)c2cccc([N+](=O)[O-])c2)nc1C`, the displacement amounted to 7.9%.
Regarding `O=C(c1ccccc1)C1(C(=O)c2ccccc2)CCCC1`, the displacement was -9.8%.
Then `C=CCOC(=O)C1=C(C)NC(C)=C(C(=O)OCC=C)C1c1ccccc1F`, with 7.8%; and `Cc1ccc(F)c(NC(=O)C2CC(=O)N(c3ccc(Cl)cc3)C2)c1` (stereo not given), with 7.7%.
With `COc1ccc(CN2C(=O)NC(=O)/C(=C\C=C\c3ccco3)C2=O)cc1` the figure was 33.4%.
With `COc1ccc(N2C(=O)c3cccc4cccc(c34)C2=O)cc1OC` the figure was 43.6%; with `CC(C)CNC(=O)c1cccc(NC(=O)Cc2ccc(Cl)cc2)c1`, 8%; with `Cc1cc(OCC(=O)Nc2cccnc2)cc(C)c1Cl`, -1.1%.
On to `O=C(/C=C/c1ccco1)N1CCN(c2cccc(Cl)c2)CC1`, for which the displacement is -19.5%.
Regarding `O=C(Nc1ccc(S(=O)(=O)Nc2ncccn2)cc1)c1cccs1`, the displacement turned out to be 10.5%.
Then `Cc1ccc(C(=O)Nc2c(C(=O)N3CCC(Cc4ccccc4)CC3)cnn2-c2ccccc2)cc1`, with -8.3%; and `O=C(/C=C/c1ccccc1)N1CCN(c2ccc(F)cc2)CC1`, with -8.6%.
Then `COc1nccc(NCc2ccccc2)c1C#N`, with -12.3%; and `N/C(=N\OC(=O)COc1ccc2ccccc2c1)c1ccc([N+](=O)[O-])cc1`, with 11%.
With `O=C1c2cccc([N+](=O)[O-])c2C(=O)N1c1cccc(-c2nc3ccccc3c(=O)o2)c1` the figure was 2%.
In the case of `CC(Oc1ccccc1)C(=O)Nc1ccccc1F` (stereo not given), the displacement amounted to 4.4%.
Take `NC(=O)C1CCN(C(=O)c2cccc(F)c2)CC1`: the displacement is 14.3%.
Then `O=C(O)COc1ccc(/C=N/NC(=O)C(O)(c2ccccc2)c2ccccc2)cc1`, with -8.8%; and `O=[N+]([O-])c1ccccc1S(=O)(=O)NCc1ccc(F)cc1`, with -0.2%; and `C=CCNC(=O)/C(=C\c1ccc(Cl)cc1)NC(=O)c1ccco1`, with -7.9%.
Then `COc1ccc(C(=O)c2ccc(OC)c(N)c2)cc1N`, with 2.2%; and `CC1=C(C(=O)OCC(F)(F)F)C(c2cccc(Cl)c2)NC(=O)N1` (stereo not given), with 3.2%.
On to `N#CC1=C(N)Oc2c(ccc3cccnc23)C1c1ccc(Cl)cc1Cl` (stereo not given), for which the displacement was 17.7%.
Then `O=C(c1ccccc1)c1coc2ccc(O)cc12`, with 18.1%.
Then `O=C1C2C(C(=O)N1/N=C/c1ccccc1Cl)C1C=CC2C12CC2` (stereo not given), with 3.3%.
Consider `C/C(=N\NC(=O)c1cc(Br)ccc1O)c1cccnc1`, for which the displacement turned out to be 3.9%.
Turning to `Cc1nn(-c2ccccc2)c(N2CCCCC2)c1/C=N/Nc1ccc(C(F)(F)F)cn1`, the displacement stood at 1.7%.
With `CC(=O)Nc1ccc(C(=O)Nc2ccc(Cl)cc2Cl)cc1` the figure was 8.3%.
Then `Cc1ccc(S(=O)(=O)N(C)CCCC(=O)Nc2cccc(C)c2C)cc1`, with 10.1%.
Then `COc1ccc(NC(=O)Nc2nnc(CC(C)C)s2)cc1`, with 5.7%; and `Cc1cc(C)nc(SC/C=C/CSc2nc(C)cc(C)n2)n1`, with -1%.
Turning to `Cc1ccc(N2CC(C(=O)N/N=C/c3ccc4c(c3)OCO4)CC2=O)cc1` (stereo not given), the displacement was -7%.
Then `CCCC(=O)Nc1cccc(NC(=O)c2ccc(-c3ccc(Cl)cc3Cl)o2)c1`, with 2.3%.
Then `CCOc1cc(C2C(C(=O)OC)=C(C)NC3=C2C(=O)CC(C)(C)C3)ccc1OC(=O)C1CC1` (stereo not given), with 3.3%; and `CCOc1ccc(C(=O)Nc2cc(C(F)(F)F)cc(C(F)(F)F)c2)cc1`, with 2.1%.
Turning to `COc1ccccc1-n1c(SCc2ccccc2)nc2ccccc2c1=O`, the displacement was 9.9%.
Then `Cc1cc2nc3s/c(=C\c4ccc(N5CCOCC5)c([N+](=O)[O-])c4)c(=O)n3c2cc1C`, with 2.9%; and `O=c1[nH]c(=O)n(-c2ccc(Cl)cc2)c(O)c1C=Nc1cccc(F)c1`, with 10%; and `Cc1ccc(/C=N/NC(=O)CSc2ncccn2)cc1`, with -5%.
For `Cc1ccccc1-c1ncnn1-c1cccc(Cl)c1C`, the displacement is -11.5%.
With `Cc1ccccc1C(=O)NN=C1CCCC1` the figure was 3%.
Then `Cc1cc(C)c2[nH]c(O)c(N=NC(N)=S)c2c1`, with 24%.
With `CCOc1ccc(NC(=O)CCN2C(=O)S/C(=C\c3ccc(OC)c(OC)c3)C2=O)cc1` the figure was 9.1%; with `O=C(NC(=S)Nc1ccc2oc(-c3ccc(Cl)cc3)nc2c1)c1ccccc1`, 9.1%; with `Cc1cccc(C)c1NC(=O)c1c(F)c(F)c(F)c(F)c1F`, -8.9%.
On to `CCOc1ccc(C=C2C(=O)N(C)C(=O)N(C)C2=O)cc1Cl`, for which the displacement turned out to be 12.9%.
Then `Cc1onc(-c2ccccc2Cl)c1C(=O)N(Cc1ccccc1)C(C)C`, with 7.5%; and `CCc1ccccc1N(CC(=O)Nc1ccc(C)cc1)S(C)(=O)=O`, with 4%; and `Cc1cc(C)nc(SC(C)C(=O)N/N=C/c2ccc(Br)cc2)n1` (stereo not given), with -0.2%.
As to `CN(C)c1cccc(C(=O)NC(c2ccccc2)c2ccccc2)c1`, the displacement was 0.7%.
Take `O=C(Nc1ccc([N+](=O)[O-])cc1Br)c1ccc(Br)o1`: the displacement turned out to be 4.4%.
`CC1=NN(c2ccc(Oc3ccccc3)c(S(=O)(=O)O)c2)C(=O)C1`: the displacement was determined as 5%.
`C=CCNC(=O)CN(c1ccc(Cl)cc1)S(C)(=O)=O`: the displacement stood at 4.9%.
With `C/C(=N/NC(=O)CNc1ccc(C)cc1)c1ccc(Br)s1` the figure was -9.1%; with `N/C(=C\C(=O)c1ccccc1O)C(F)(F)F`, 7.8%; with `CC1CCN(S(=O)(=O)c2cccc3ccccc23)CC1`, 4.5%.
With `CCc1nnc(NS(=O)(=O)c2ccc(NC(=O)/C=C/c3cccc([N+](=O)[O-])c3)cc2)s1` the figure was -10.1%.
With `COc1ccc(NC(=O)c2ccccc2C(F)(F)F)c(OC)c1` the figure was 1.9%; with `Cc1ccc(C(=O)NC(=S)NCCc2ccccc2)cc1`, 8.4%.
In the case of `CC(c1ccccc1)C1CC(=O)N(c2ccccc2)C1=O` (stereo not given), the displacement was -6.6%.
As to `O=C(NC(=S)Nc1ccc2oc(-c3cccc(Br)c3)nc2c1)c1ccco1`, the displacement is 13.6%.
Then `COc1ccc(-n2c(/C=C/c3c(C)n(C)c4ccc(OC)cc34)nc3ccccc3c2=O)cc1`, with -7.8%; and `COc1cc(OC)cc(C(=O)Nc2ccccc2Br)c1`, with 2.4%; and `Cc1cccc(C(=O)Nc2sc3c(c2C(=O)N(C)C)CCCCC3)c1`, with -11.4%.
With `CCc1ccc(OCC(=O)Nc2ccccc2C(F)(F)F)cc1` the figure was -11.5%; with `CCOc1ccccc1/C=C1/C(=O)NN(c2ccc(C)c(Cl)c2)C1=O`, 17.8%.
With `Cc1ccc2nc(/C(C#N)=C\c3ccc(Br)cc3)[nH]c2c1` the figure was 136%.
As to `O=C(O)c1nn2c(C(F)(F)F)cc(-c3cccs3)nc2c1Cl`, the displacement was determined as 3.1%.
Then `CC(C)(C)c1ccc(C(=O)NNC(=O)c2ccncc2)cc1`, with -10.9%; and `CSc1nncn1/N=C/c1ccc([N+](=O)[O-])cc1`, with -0.3%; and `OC(CN1CCN(Cc2ccccc2)CC1)Cn1c2ccccc2c2ccccc21` (stereo not given), with -5.9%.
With `O=C1OC(c2ccc(NC(=O)C(F)(F)F)cc2)(c2ccc(NC(=O)C(F)(F)F)cc2)c2ccccc21` the figure was 4.8%; with `O=C(O)/C=C/c1ccc(S(=O)(=O)NCc2cccnc2)cc1`, 8.8%; with `CCOC(=O)c1ccccc1NC(=O)c1cc(Cl)ccc1OC`, 0.8%.
With `O=C(NCCCNc1ccc([N+](=O)[O-])cc1)c1ccccc1F` the figure was -8.7%; with `CC(C)N(C(=O)CSc1nc2ccccc2s1)c1ccccc1`, 9.4%.
